This is one part of the list. Single values are uncertain, as repeats are few or missing.
What follows are molecules tested on RVH-421 (assay: cell count relative to DMSO control; melanoma cells; higher = more viable cells). Conditions: library dose: low library concentration; 72 h.
Work on `CO[C@H]1C[C@@H]2CC[C@@H](C)[C@@](O)(O2)C(=O)C(=O)N2CCCC[C@H]2C(=O)O[C@H]([C@H](C)C[C@@H]2CC[C@@H](OCCO)[C@H](OC)C2)CC(=O)[C@H](C)/C=C(\C)[C@@H](O)[C@@H](OC)C(=O)[C@H](C)C[C@H](C)/C=C/C=C/C=C/1C` [everolimus] + CN(C)S(=O)(=O)c1ccc2c(c1)/C(=C/c1cc3c([nH]1)CCCC3)C(=O)N2 [SU6656] (first compound 0.02 µM, partner dose 0.4 µM) yielded a cell count of 102%. Work on `CO[C@H]1C[C@@H]2CC[C@@H](C)[C@@](O)(O2)C(=O)C(=O)N2CCCC[C@H]2C(=O)O[C@H]([C@H](C)C[C@@H]2CC[C@@H](OCCO)[C@H](OC)C2)CC(=O)[C@H](C)/C=C(\C)[C@@H](O)[C@@H](OC)C(=O)[C@H](C)C[C@H](C)/C=C/C=C/C=C/1C` [everolimus] + Nc1nc(F)nc2c1ncn2[C@@H]1O[C@H](CO)[C@@H](O)[C@@H]1O [fludarabine] (first compound 0.02 µM, partner dose 0.2 µM) yielded a cell count of 87.8%. Work on `CO[C@H]1C[C@@H]2CC[C@@H](C)[C@@](O)(O2)C(=O)C(=O)N2CCCC[C@H]2C(=O)O[C@H]([C@H](C)C[C@@H]2CC[C@@H](OCCO)[C@H](OC)C2)CC(=O)[C@H](C)/C=C(\C)[C@@H](O)[C@@H](OC)C(=O)[C@H](C)C[C@H](C)/C=C/C=C/C=C/1C` [everolimus] + CC(=O)c1c(C)c2cnc(Nc3ccc(N4CCNCC4)cn3)nc2n(C2CCCC2)c1=O [palbociclib] (first compound 0.02 µM, partner dose 0.04 µM) yielded a cell count of 64%. `CC(=O)O[C@@]12CO[C@@H]1C[C@H](O)[C@@]1(C)C(=O)[C@H](O)C3=C(C)[C@@H](OC(=O)[C@H](O)[C@@H](NC(=O)OC(C)(C)C)c4ccccc4)C[C@@](O)([C@@H](OC(=O)c4ccccc4)[C@H]21)C3(C)C` [Docetaxel] + CC(C)C[C@H](NC(=O)[C@H](Cc1ccccc1)NC(=O)c1cnccn1)B(O)O [Bortezomib] (first compound 0.0001 µM, partner dose 0.001 µM) gave a cell count of 73%. `CO[C@H]1C[C@@H]2CC[C@@H](C)[C@@](O)(O2)C(=O)C(=O)N2CCCC[C@H]2C(=O)O[C@H]([C@H](C)C[C@@H]2CC[C@@H](OCCO)[C@H](OC)C2)CC(=O)[C@H](C)/C=C(\C)[C@@H](O)[C@@H](OC)C(=O)[C@H](C)C[C@H](C)/C=C/C=C/C=C/1C` [everolimus] + Nc1ncn([C@H]2C[C@H](O)[C@@H](CO)O2)c(=O)n1 [decitabine] (first compound 0.02 µM, partner dose 0.1 µM) was tested, and the cell count was 86.2%. `CC(=O)O[C@@]12CO[C@@H]1C[C@H](O)[C@@]1(C)C(=O)[C@H](O)C3=C(C)[C@@H](OC(=O)[C@H](O)[C@@H](NC(=O)OC(C)(C)C)c4ccccc4)C[C@@](O)([C@@H](OC(=O)c4ccccc4)[C@H]21)C3(C)C` [Docetaxel] + O=C(O)c1ccc2c(c1)nc(Nc1cccc(Cl)c1)c1ccncc12 [CX4945] (first compound 0.0001 µM, partner dose 0.4 µM) gave a cell count of 85.9%. With `Nc1ccn([C@@H]2O[C@H](CO)[C@@H](O)C2(F)F)c(=O)n1` [gemcitabine] + Cn1cc(/C=C2\C(=O)Nc3cccnc32)c2ccccc21 [GW441756] (first compound 0.0004 µM, partner dose 0.4 µM) the cell count was 82.7%. `CO[C@H]1C[C@@H]2CC[C@@H](C)[C@@](O)(O2)C(=O)C(=O)N2CCCC[C@H]2C(=O)O[C@H]([C@H](C)C[C@@H]2CC[C@@H](OCCO)[C@H](OC)C2)CC(=O)[C@H](C)/C=C(\C)[C@@H](O)[C@@H](OC)C(=O)[C@H](C)C[C@H](C)/C=C/C=C/C=C/1C` [everolimus] + OCCn1cc(-c2cnc3nnn(Cc4ccc5ncccc5c4)c3n2)cn1 [PF04217903] (first compound 0.02 µM, partner dose 1 µM) showed a cell count of 71.3%. Work on `CC(=O)O[C@@]12CO[C@@H]1C[C@H](O)[C@@]1(C)C(=O)[C@H](O)C3=C(C)[C@@H](OC(=O)[C@H](O)[C@@H](NC(=O)OC(C)(C)C)c4ccccc4)C[C@@](O)([C@@H](OC(=O)c4ccccc4)[C@H]21)C3(C)C` [Docetaxel] + Cc1cc([N+](=O)[O-])ccc1NS(=O)(=O)c1cc(Cl)ccc1Cl [FH535] (first compound 0.0001 µM, partner dose 1 µM) yielded a cell count of 90.5%.
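Also: cell number obtained by counting DAPI-stained nuclei in high-throughput microscope images with image analysis software, screen run in 1,536-well plates.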
